# The whole screen tested about 310,000 compounds, of which about 14,000 (4.5%) showed an effect of 50% or more. The effect is printed as a negative number. The list shows a part of the results.
# Biological target: human ether-à-go-go-related gene (hERG) potassium channel (human, UniProt Q12809)
# Experiment: primary screen, population patch clamp on CHO cells stably expressing hERG
# 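Also: peak tail current of the secondary pulse compared with the same well before compound.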
# human ether-à-go-go-related gene (hERG) potassium channel, sequence (Q12809 whole entry, looked up): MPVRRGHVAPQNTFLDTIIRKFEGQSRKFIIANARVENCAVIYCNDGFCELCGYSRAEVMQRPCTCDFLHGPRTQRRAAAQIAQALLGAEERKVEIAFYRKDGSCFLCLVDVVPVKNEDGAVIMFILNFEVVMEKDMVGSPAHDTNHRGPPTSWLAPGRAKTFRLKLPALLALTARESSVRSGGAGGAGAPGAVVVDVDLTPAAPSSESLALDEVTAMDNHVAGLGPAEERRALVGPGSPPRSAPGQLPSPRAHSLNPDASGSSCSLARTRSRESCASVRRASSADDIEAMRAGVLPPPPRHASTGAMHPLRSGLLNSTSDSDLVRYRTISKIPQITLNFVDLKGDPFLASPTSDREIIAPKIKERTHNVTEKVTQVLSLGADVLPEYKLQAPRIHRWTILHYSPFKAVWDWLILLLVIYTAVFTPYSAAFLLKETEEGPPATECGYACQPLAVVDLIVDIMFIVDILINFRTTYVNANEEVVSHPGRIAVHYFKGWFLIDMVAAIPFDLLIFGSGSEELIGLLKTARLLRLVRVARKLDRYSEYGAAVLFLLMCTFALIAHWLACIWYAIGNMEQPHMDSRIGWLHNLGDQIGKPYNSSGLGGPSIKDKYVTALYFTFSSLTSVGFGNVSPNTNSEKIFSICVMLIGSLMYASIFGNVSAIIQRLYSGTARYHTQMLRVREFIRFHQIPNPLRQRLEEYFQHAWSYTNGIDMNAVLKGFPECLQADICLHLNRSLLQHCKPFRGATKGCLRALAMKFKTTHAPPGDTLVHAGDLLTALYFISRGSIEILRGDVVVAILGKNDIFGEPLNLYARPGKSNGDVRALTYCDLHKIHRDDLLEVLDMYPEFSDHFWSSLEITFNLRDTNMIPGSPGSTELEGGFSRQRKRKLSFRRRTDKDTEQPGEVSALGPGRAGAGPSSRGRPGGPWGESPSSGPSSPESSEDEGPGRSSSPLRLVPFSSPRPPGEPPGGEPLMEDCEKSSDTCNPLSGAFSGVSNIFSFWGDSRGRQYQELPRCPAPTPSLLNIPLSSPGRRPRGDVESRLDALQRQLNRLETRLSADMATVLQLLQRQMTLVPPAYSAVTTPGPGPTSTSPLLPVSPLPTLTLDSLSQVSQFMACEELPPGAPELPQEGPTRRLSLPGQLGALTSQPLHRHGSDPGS
row,Structure (SMILES),"hERG current change (%, negative = inhibition) at 10uM [%]"
1,Cc1ccccc1NCN1C(=O)C2CCC(C)(C1=O)C2(C)C (stereo not drawn),-0.978
2,Cc1ccc(S(=O)(=O)NCCC(=O)OCC(=O)N2CCCC2=O)cc1C,-2.15
3,O=C1OC(c2ccccc2)=N/C1=C\C=C\c1ccco1,20.6
4,c1nc(COc2nsnc2N2CCOCC2)cs1,-4.15
5,S=c1[nH]nc(-c2cccs2)n1/N=C/c1cccs1,19.4
6,O=C(N[C@@H](Cc1ccccc1)C(=O)O)c1ccncc1.O=C(O)C(F)(F)F,8.25
7,COc1ccc(C(C)(C)C)cc1NC(=O)c1cc(S(=O)(=O)N(C)C)ccc1N1CCCC1,-60
8,Nc1nnnn1/N=C/c1cc(Cl)ccc1O,14.5
9,Cc1c(Cl)cccc1NC(=O)c1ccco1,13.5
10,COc1ccc(CCNC(=O)CCn2c(SCC#N)nc3ccccc3c2=O)cc1OC,4.34
11,Cc1ccc(SCCN2CCC(C(C)(C)C)CCC2=O)cc1 (stereo not drawn),-15.6
12,Cc1c(-c2nc3ccccc3[nH]2)cnn1C,25
13,CCOc1cc(C(C(=O)NCC2CCCO2)N(C(=O)Cn2nnc3ccccc32)c2ccccc2C)ccc1O (stereo not drawn),24.6
14,CCOC(=O)C(C)Sc1nnc2c3ccccc3n(C)c2n1 (stereo not drawn),-9.97
15,O=C(NC1CC1)c1ccc(Cl)c(S(=O)(=O)N2CCOCC2)c1,-0.929
16,O=C(CCCn1c(=S)[nH]c2cc3c(cc2c1=O)OCO3)N1CCc2ccccc2C1,0.586
17,Cc1cccc(/C=C/c2onc(C)c2S(=O)(=O)N2CCC(C(=O)NC(C)C)CC2)c1,-11.3
18,COc1cc(C2C(C#N)=C(N)Oc3c2c(-c2ccccc2)nn3-c2ccccc2)cc(OC)c1OC (stereo not drawn),-65
19,O=C1NN(c2ccc(F)c(Cl)c2)C(=O)/C1=C\c1cccc(OC(=O)c2cccs2)c1,4.41
20,CN1CCN(NC(=O)/C=C/c2cccc(Cl)c2)CC1,-6.09
21,CCCCN(C(=O)C1CCCC1)c1c(N)n(CC(C)C)c(=O)[nH]c1=O,5.99
22,CCCCc1nc(NCc2ccccc2)c(C#N)c2c1COC(C)(C)C2,12.9
23,Cc1nn(CC(=O)N(C)C)c(=O)c2ccccc12,17.2

row,Structure (SMILES),"hERG current change (%, negative = inhibition) at 10uM [%]"
1,Cc1ccc(CNC(=O)CCS(=O)(=O)c2ccc3c(c2)NC(=O)C(C)S3)cc1 (stereo not drawn),9.44
2,COc1ccc(-c2cc(-c3ccc(Cl)cc3)n[nH]2)c(O)c1,32.6
3,c1ccc2c(c1)Cc1cc3ccccc3nc1-2,7.29
4,C=CCNC(=O)c1ccc2c(=O)n(CCCN3CCCC3=O)c(=S)[nH]c2c1,-3.76
5,COc1ccc(/C=C2/C(=O)C(C)(C(C)C)CCC2C)cc1 (stereo not drawn),24.5
6,COc1ccc2c(c1OC)C(=O)N1N=C(c3ccc(F)cc3)CC21 (stereo not drawn),-26.2
7,OC(CN1CCc2ccccc2C1)c1ccccc1 (stereo not drawn),-9.09
8,COc1ccc2c(CC#N)c[nH]c2c1,12.1
9,CCOC(=O)c1ccc2c(c1)N(CC#N)C(=O)C(C)(C)O2,-4.65
10,Nc1ccc2nc(-c3ccccc3)cnc2c1,2.1
11,Cc1cccc(NC(=O)c2ccc(OCc3c(C)noc3C)cc2)n1,-16
12,Cc1ccc(NC(=S)N2CCCN(Cc3ccc(F)cc3)C2)c(C)c1,-31.1
13,COc1cc(C2C3=C(Nc4nc(N)[nH]c(=O)c42)c2ccccc2C3=O)ccc1O (stereo not drawn),10.6
14,COC(=O)C(C)N(C(=O)c1cccc2ccccc12)c1c(C)cccc1C (stereo not drawn),-20.2
15,Cc1ccc(C(c2sc3ncnn3c2O)N2CCC(C)CC2)cc1 (stereo not drawn),-4.02
16,CCOc1cc(/C=C2/NC(=O)N(CC(=O)OC)C2=O)ccc1OC,7.19
17,COCc1cc(=O)[nH]c2cc(NC(=O)C(C)(C)CCl)c(C)cc12,16.4
18,Cc1cccc(/N=C/c2sc3ccccc3c2O)n1,3.11
19,CCOC(=O)C1CCN(C(=O)CSc2ccccc2)CC1,-20.3
20,COc1ccc(-n2nnc3c(SCC(=O)c4ccccc4)ncnc32)cc1,6.54
21,Cc1c(NC(=O)C(C)N2CC(C)OC(C)C2)c(=O)n(-c2ccccc2)n1C (stereo not drawn),9.21
22,COCCCNC(=O)CN(Cc1ccccc1)S(=O)(=O)c1ccccc1,-0.593
23,CSc1nc2n(n1)C(c1cccs1)C1=C(CCCC1=O)N2 (stereo not drawn),4.33

row,Structure (SMILES),"hERG current change (%, negative = inhibition) at 10uM [%]"
1,COCCCNCCOCCOc1ccc(C)cc1[N+](=O)[O-].O=C(O)C(=O)O,-26.8
2,Cc1nc2cnccc2n1C,17.2
3,CCOC(=O)N1CCN(Cc2nc3cc(NC(=O)CC)ccc3n2CC)CC1,9.4
4,Cc1cc(SCC(=O)OCC(=O)N(CCC#N)c2ccccc2)nc2ccccc12,-28.6
5,CN(C(=O)COc1cc(=O)n(C)c2ccccc12)c1ccc(Cl)cc1,-29.2
6,CCOC(=O)c1sc2nc(CN3CCCCC3)nc(Cl)c2c1C,3.31
7,COc1ccccc1N1CCN(C(=O)c2ccc3nc[nH]c3c2)CC1,10.5
8,CC(=O)C1C(c2ccc(O)cc2)NC(=O)NC1(O)C(F)(F)F (stereo not drawn),16.2
9,CC(=O)Nc1ccc2c(c1)nc(CN1CCCC1)n2C,-7.28
10,COc1cccc(NC(=O)CSc2nc3ccccc3nc2N2CCOCC2)c1,-0.0485
11,O=[N+]([O-])c1cccc2ccc(/C=C/c3ccc(F)cc3)nc12,3.12
12,CCc1ccc(C2C(C(C)=O)=C(C(=O)OC)Nc3nnnn32)cc1 (stereo not drawn),8
13,CCOC(=O)CC1C(=O)NCCN1Cc1ccc(OC)c(OC)c1 (stereo not drawn),9.82
14,CN(CCCC(=O)Nc1ccccc1)S(=O)(=O)c1ccc(Cl)cc1,-47.9
15,Cc1cc(C)c(S(=O)(=O)Nc2ccccc2C(=O)N2CCCC2)c(C)c1,7.52
16,COCC(=O)NC1CCN(CC(=O)Nc2ccc(OC)cc2[N+](=O)[O-])CC1,-2.46
17,COc1ccc(C(=O)NNC(=O)CSc2nnc(COc3ccccc3OC)n2C)cc1,6.07
18,CN(C)S(=O)(=O)c1cc(S(=O)(=O)N(C)C)c(Cl)cc1N,-8.31
19,CCN(CC)CCNC(=O)Cn1nc(Cc2ccccc2)c2ccccc2c1=O,-49.4
20,Cn1nnc(NC(=O)c2ccco2)n1,-33.7
21,CSc1nc(N)c(N=Nc2ccc([As](=O)(O)O)cc2)c(=O)[nH]1,9.11
22,Cc1cc2n(n1)C(c1c[nH]c3ccccc13)Nc1ccccc1-2 (stereo not drawn),7.43
23,O=C(CN1CCN(S(=O)(=O)c2ccc(F)cc2)CC1)Nc1ccc(Cl)c(C(F)(F)F)c1,9.48

row,Structure (SMILES),"hERG current change (%, negative = inhibition) at 10uM [%]"
1,COCCNc1nc2c(c(=O)n(C)c(=O)n2C)n1Cc1cccc(C(F)(F)F)c1,-6.35
2,COc1cc([N+](=O)[O-])cc(CN2CCCCC2)c1O,-1.2
3,O=C(CN(C(=O)CSc1nnc(COc2ccccc2)o1)c1ccc(F)cc1)NC1CCCC1,4.59
4,CCOC(=O)N1CCN(S(=O)(=O)c2ccc(C(=O)Nc3ccc(F)cc3F)cc2)CC1,5.94
5,CC(=O)NCCC(=O)Nc1cc(S(=O)(=O)N2CCCCC2)ccc1N1CCCCC1,-5.37
6,CC1CC(C)CN(c2oc(-c3ccccc3Cl)nc2C#N)C1 (stereo not drawn),8.71
7,O=C(COc1ccccc1N1C(=O)c2ccccc2C1=O)c1ccc(Cl)cc1,-5.55
8,O=C1/C(=C/c2ccco2)N=C(N2CCCCC2)N1c1ccccc1,0.89
9,O=C(NCCc1c[nH]c2ccccc12)c1cccnc1,19.7
10,Cc1ccc(OCC2Cn3c(nc4c3c(=O)[nH]c(=O)n4C)O2)cc1 (stereo not drawn),-0.968
11,CC(C)(C)C(=O)N1CCN(c2ccc(NC(=O)c3ccc4c(c3)OCCO4)cc2)CC1,-8.69
12,O=C(Nc1ccn(Cc2ccccc2F)n1)c1ccc(COc2ccccc2Cl)cc1,-13.6
13,COc1cc(/C(C)=N/NC(=S)NC(C)C)cc(OC)c1OC,6.16
14,Cc1ccc(S(=O)(=O)N2CCN(C(=O)CNC(=O)c3sc4ccccc4c3Cl)CC2)cc1,-1.23
15,CCCCOc1ccc(-c2nnn(CC(=O)NCc3ccco3)n2)cc1,10.3
16,CCNC(=O)CN(c1ccc(C)cc1)S(=O)(=O)c1ccc(SC)cc1,-19
17,C=CCN(c1ccccc1OC)S(=O)(=O)c1cccc(C(=O)Nc2nnc(C3CC3)s2)c1,6.56
18,CN(C)C1(CNC(=O)c2ccc(NS(=O)(=O)c3ccc(Cl)c(Cl)c3)cc2)CCCCC1,-74.1
19,N=C1c2ccccc2CN1c1cccc([N+](=O)[O-])c1,-27.7
20,COc1ccc(NC(=O)COc2ccc(CNCCCN3CCOCC3)cc2OC)cc1.Cl,0.185
21,Fc1cccc(C2CCCCN2Cc2nc(C3CC3)no2)c1 (stereo not drawn),13.3

# Reference: publication PMC4336329 (PLoS ONE, 2015)
